According to PubChem BioAssay AID686979 (National Center for Advancing Translational Sciences (NCATS), 2013):
The campaign covered roughly 420,000 compounds. About 50,000 (12%) were called active. This list was built around the results that the source calls inconclusive (neither active nor inactive); the mix of calls is not that of the screen. The call rests on the fitted dose curve; in most records, active means well fitted inhibition curve with a large enough effect; inconclusive means small, poorly fitted or top-dose-only effect; inactive means flat fitted curve, though single readings scatter. No potency is given beside an inconclusive call; the fits are too rough.
Potency means the concentration at half of the fitted maximal effect; tags describe the fitted curve by direction and shape.

Experiment: qHTS for Inhibitors of human tyrosyl-DNA phosphodiesterase 1 (TDP1): qHTS in cells in presence of CPT; further: nearly all actives have a fitted effect of over 55% in size
Conditions: chicken DT40 Tdp1-/-;hTDP1 cells + 20 nM CPT, ATP luminescence, 48 h; series mostly up to 46.2 µM
Method in brief: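 Chicken DT40 Tdp1-/- cells stably complemented with human TDP1 were seeded at 400 cells/well in medium containing 20 nM camptothecin, exposed to pin-transferred compounds, and grown at 37 °C for at least 48 hr. Viability was read as ATP luminescence.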
In the case of `Cn1nc(C(=O)Nc2cccc(S(=O)(=O)N3CCCC3)c2)c2ccccc2c1=O`, the Potency was inconclusive [inhibitor, single point]. In the case of `Cc1noc(C)c1C(=O)N1CCC(CO)(Cc2ccccc2)CC1`, the Potency was inconclusive [inhibitor, single point]. With `O=C(Cc1ccccc1[N+](=O)[O-])Nc1ccccc1C(=O)N1CCOCC1` the Potency was “inactive”. In the case of `CC(C)COc1ccc(-c2nnc(-c3ccncc3)o2)cc1`, the Potency was inconclusive [inhibitor, single point]. For `CN(Cc1ccccc1)C(=O)COC(=O)C1CCN(S(=O)(=O)c2ccc3c(c2)OCCO3)CC1`, the Potency was “inactive”. For `CCN(C1=NS(=O)(=O)c2ccccc21)N(CC)S(=O)(=O)c1ccc(C)cc1`, the Potency was inconclusive [inhibitor, single point]. With `O=C(O)c1ccc(/C=N/Nc2ncc(Cl)cc2Cl)cc1` the Potency was “inactive”. For `CCC1(c2ccc(F)cc2)NC(=O)N(CC(=O)N2CCN(S(=O)(=O)c3ccc(Cl)cc3)CC2)C1=O` (stereo not drawn), the Potency was inconclusive [inhibitor, single point]. For `CCCCOc1ccc(C(=O)Nc2ccc(CN3CCOCC3)cc2)cc1`, the Potency was active: 13 µM. With `Cc1ccc(N)cc1NC(=O)CN1CCOCC1` the Potency was “inactive”. With `CCN1CCc2c(OCC(=O)Nc3ccc(C)cc3)cccc2C1=O` the Potency was “inactive”. With `COc1ccc2[nH]c(=O)c(CN(CC3CCCO3)C(=O)Nc3ccc(F)cc3)cc2c1` (stereo not drawn) the Potency was active: 16.4 µM. With `C=C(C)COc1ccc(-c2nc(N)ncc2Oc2ccc(OC)cc2)c(O)c1` the Potency was inconclusive [inhibitor, single point]. For `CCOC(=O)c1ccc(S(=O)(=O)Nc2ccccc2-c2nnn(CC)n2)cc1`, the Potency was active: 14.6 µM. In the case of `CCCS(=O)(=O)NCCc1csc2nc(-c3ccc(C)cc3)nn12`, the Potency was inconclusive [inhibitor, single point]. In the case of `CC(C)CC(N)c1csc(NC(=O)Nc2ccccc2C(C)C)n1` (stereo not drawn), the Potency was inconclusive [inhibitor, single point]. In the case of `COc1ccc(/C(N)=N/OC(=O)CCC2CCCC2)cc1`, the Potency was “inactive”. For `Cc1ccc(C(=O)NC2CCN(CC(=O)NCc3cccs3)CC2)cc1`, the Potency was “inactive”. For `CC(NC(=S)NCCCN1CCOCC1)C1CC2CCC1C2` (stereo not drawn), the Potency was inconclusive [inhibitor, single point]. In the case of `CC1CCCCN1S(=O)(=O)c1ccc(C(=O)N(CCCN(C)C)c2nc3cc4c(cc3s2)OCO4)cc1` (stereo not drawn), the Potency was “inactive”. For `Oc1c(Cl)cc(Cl)cc1C=Nc1ccc(N2CCOCC2)cc1`, the Potency was “inactive”. With `COC(=O)CCC/C=C1\SC[C@@H](NC(=O)c2ccccc2)C1NC(C)=O` (stereo partly drawn) the Potency was “inactive”. With `CCOC(=O)c1c(-c2cccc([N+](=O)[O-])c2)csc1NC(=O)CCCOc1ccccc1OC` the Potency was inconclusive [inhibitor, single point]. In the case of `Cc1cc(C)c(C#N)c(SCC2COc3ccccc3O2)n1` (stereo not drawn), the Potency was inconclusive [inhibitor, single point]. For `COC(=O)[C@@]12C[C@@H](CC(=O)NCc3cccc(C(F)(F)F)c3)C(=O)N(Cc3ccc4c(c3)OCO4)C1=CCC(C)(C)C2`, the Potency was inconclusive [inhibitor, single point]. With `CN(C)C1=C2C=CC=CC2/C(=C2/C=Cc3ccccc32)C=C1` (stereo not drawn) the Potency was inconclusive [inhibitor, single point]. In the case of `CCOC(=O)N1CCN(C(=O)c2cc(COc3cccc(C(C)=O)c3)on2)CC1`, the Potency was inconclusive [inhibitor, single point]. For `CN(CC(=O)Nc1cccc(F)c1)C(=O)C1CCN(S(=O)(=O)c2ccc3c(c2)OCCO3)CC1`, the Potency was inconclusive [inhibitor, single point]. In the case of `Cc1ccsc1C(=O)N1CCC1(C)C(=O)NCc1cccc2ccccc12` (stereo not drawn), the Potency was inconclusive [inhibitor, partial curve]. For `Cc1cc(S(=O)(=O)c2ccc([N+](=O)[O-])cn2)ccc1Br`, the Potency was active: 0.326 µM. With `Cn1ccsc1=NC(=O)c1cc(S(=O)(=O)N2CCOCC2)ccc1F` the Potency was “inactive”. For `CCOc1ccc(NC(=O)C2CCCN(c3nn4cc(-c5ccc(OC)cc5)nc4s3)C2)cc1` (stereo not drawn), the Potency was inconclusive [inhibitor, single point]. With `Cc1ccc2c(c1)nnn2C1CCN(CC(=O)N(c2ccccc2)c2ccccc2)CC1` the Potency was active: 13 µM. For `O=C(Nc1ccc(N2CCN(C(=O)c3ccccc3)CC2)cc1)c1cccnc1`, the Potency was “inactive”. For `Cc1ccc(S(=O)(=O)N2CCC(C(=O)NCCC3=CCCCC3)CC2)c(C)c1`, the Potency was inconclusive [inhibitor, single point]. With `Cc1ccc(S(=O)(=O)N2[C@@H](c3ccc(Br)cc3)C(C(=O)O)=CC[C@H]2c2ccc(C(C)C)cc2)cc1` the Potency was inconclusive [inhibitor, single point]. With `Cc1ccc(-n2ncc(C(=O)N3CCN(C4CCCCC4)CC3)c2C2CCN(C(=O)OC(C)(C)C)CC2)cc1C` the Potency was active: 8.2 µM. In the case of `Cn1c(CNC(=O)C2CCC(=O)N(CCc3cccc(F)c3)C2)nc2ccccc21` (stereo not drawn), the Potency was inconclusive [inhibitor, single point]. In the case of `OC(c1ccc(F)cc1)c1ncc(-c2ccccc2Cl)[nH]1` (stereo not drawn), the Potency was inconclusive [inhibitor, single point]. With `Cc1ccc(OCC(=O)c2c(O)c3ccccc3oc2=O)cc1C` the Potency was inconclusive [inhibitor, single point]. In the case of `COc1ccc(NC(=O)CCNS(=O)(=O)c2cc(Br)ccc2Br)cc1S(N)(=O)=O`, the Potency was inconclusive [inhibitor, single point]. For `O=S(=O)(c1cccnc1)N1CCCC(Nc2ccc(F)c(F)c2)C1` (stereo not drawn), the Potency was inconclusive [inhibitor, single point]. With `CCOC(=O)N1CCN(S(=O)(=O)c2ccc(C(=O)N(CCN(C)C)c3nc4ccc(Cl)cc4s3)cc2)CC1` the Potency was “inactive”. In the case of `C=C(C)CNC(=S)NNC(=O)CCn1c2ccccc2c2ccccc21`, the Potency was inconclusive [inhibitor, single point]. With `CCCCCCc1c(C)c2c(cc(C)c3c(C)c(C)oc32)oc1=O` the Potency was inconclusive [inhibitor, partial curve]. In the case of `CCn1c(SCC(=O)NC2CCCCC2C)nnc1-c1ccc(OC)cc1` (stereo not drawn), the Potency was inconclusive [inhibitor, full curve, poor fit]. For `CC(=O)c1cccc(NC(=O)C2=CC(c3ccc(F)cc3)=NS(=O)(=O)N2C)c1`, the Potency was inconclusive [inhibitor, single point]. With `Cc1ccc2c(c1)Cc1nc3ccccc3nc1-2` the Potency was inconclusive [inhibitor, single point]. In the case of `CC(=O)Nc1ccccc1OCC(=O)NC(C)c1ccccc1` (stereo not drawn), the Potency was “inactive”. With `O=C(CN1CC(=O)Oc2ccccc21)OCC(=O)c1ccc(F)cc1` the Potency was inconclusive [inhibitor, partial curve]. For `NC(=O)c1nsc(C(=O)N(c2ccccc2)C(C(=O)NC2CCCC2)c2ccc3ncccc3c2)c1N` (stereo not drawn), the Potency was inconclusive [inhibitor, single point]. For `CCCCN(C(=O)CSc1nnc(Nc2ccccc2)s1)c1c(N)n(CCC)c(=O)[nH]c1=O`, the Potency was “inactive”. In the case of `O=C(/C=C1\OCc2ccccc21)c1ccccc1`, the Potency was inconclusive [inhibitor, full curve, poor fit]. For `Nc1c(-c2cccc(Cl)c2)cnn1-c1cccc([N+](=O)[O-])c1`, the Potency was “inactive”. In the case of `O=C(Nc1ccc(Cl)cc1)c1cc(S(=O)(=O)N2CCCCC2)ccc1N1CCOCC1`, the Potency was “inactive”. In the case of `COc1ccc(OC)c(CNC(=O)c2ccc(Sc3ccc(Cl)cc3)c(NC(C)=O)c2)c1`, the Potency was inconclusive [inhibitor, single point]. With `O=C(NCCc1ccccc1)c1ccc(Cn2c(=O)c3cccn3c3cccnc32)cc1` the Potency was inconclusive [inhibitor, single point]. For `CCCN1Cc2cccc(C(=O)Nc3ccc(CN4CCCC4)cc3)c2C1=O`, the Potency was “inactive”. In the case of `COc1ccc2[nH]c3c(c2c1)CCN1C(=O)N([C@@H](C)C(=O)NCc2ccccc2OC)C(=O)[C@]31C`, the Potency was inconclusive [inhibitor, single point]. In the case of `Cc1ccc(S(=O)(=O)N(CC(=O)NCc2ccccc2Cl)C(=O)N2CCN(C)CC2)cc1`, the Potency was inconclusive [inhibitor, partial curve]. For `NNc1nc(Nc2ccccc2)nc(N2CCCCC2)n1`, the Potency was inconclusive [inhibitor, single point]. With `COc1ccc(-c2nc(CNS(=O)(=O)c3cc(OC)ccc3OC)cs2)cc1` the Potency was inconclusive [inhibitor, single point]. For `COc1ccc(/C=C/C(=O)OCC(=O)N2CCN(S(=O)(=O)c3ccc(C)cc3C)CC2)cc1OC`, the Potency was inconclusive [inhibitor, single point]. With `Cc1ccc2onc(CC(=O)N3CCN(c4ccc(Cl)cc4)CC3)c2c1` the Potency was inconclusive [inhibitor, single point]. For `Cc1cc(C)cc(-c2nc(-c3ccncc3)no2)c1`, the Potency was inconclusive [inhibitor, single point]. In the case of `O=C(NC1CCCCC1)c1ccc(CSc2nc3ccncc3n2Cc2ccccc2)cc1`, the Potency was inconclusive [inhibitor, single point]. For `COc1ccc(C(=O)Nc2cc(C)on2)cc1S(=O)(=O)N1CC(c2ccccc2)CC1=O` (stereo not drawn), the Potency was “inactive”. With `CNc1nc(NC)nc(-n2c(C(F)(F)F)nc3ccccc32)n1` the Potency was inconclusive [inhibitor, single point].
